Assay results from PubChem BioAssay AID1963576 (National Center for Advancing Translational Sciences (NCATS), 2024).
Screen size: about 46,000 compounds; about 60 (0.1%) were called active. Roughly 3% stayed inconclusive and do not appear here. The call rests on the fitted dose curve; in most records, active means well fitted inhibition curve with a large enough effect; inconclusive means small, poorly fitted or top-dose-only effect; inactive means no such curve, though single readings can be large or run the other way. Some of the results follow.

test: Primary qHTS assay for Inhibitors of ovarian cancer metastasis using an organotypic tumor microenvironment (TME) model.; further: nearly all actives have a fitted effect of over 65% in size;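 on activity change, negative = inhibition: plate controls were DMSO wells for no effect and tomatine positive control wells for full effect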; conditions: SKOV3ip1-GFP adhesion/invasion on 3D omental model, fluorescence; series mostly up to 45.8 µM; activity change, negative = inhibition: at the top concentration
In short: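 Adhesion/invasion was scored as fixed GFP-labeled SKOV3ip1 cell counts (488/509 nm), normalized to DMSO and tomatine controls. Cancer cells in serum-free medium, with four compound doses (0.36-46 umol/L), sat 2 hr at RT then 16 hr at 37 C on a 48 hr fibroblast/mesothelial/ECM culture.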

outcome, inactive:
Cc1nn(C)c2c1c(C(F)(F)F)cc(=O)n2C(C)C(=O)Nc1ccccc1F (stereo not given), COc1ccc(S(=O)(=O)NCC(c2cccs2)S(=O)(=O)c2ccccc2)cc1OC (stereo not given), CCOc1ccc(C(=O)c2cn(CC(=O)Nc3ccc(Cl)cc3)c3cc4c(cc3c2=O)OCO4)cc1, Cc1c(C(=O)N(Cc2ccccc2F)C2CCS(=O)(=O)C2)oc2ccccc12 (stereo not given), COc1cc(/C=C/c2nc(C#N)c(N3CCN(C)CC3)o2)cc(OC)c1OC, CSc1cccc(NC(=O)C2CCN(c3nc4ccccc4[nH]3)CC2)c1, CCc1ccc(N2C(=O)CSC23C(=O)N(Cc2ccc(C)cc2)c2ccccc23)cc1 (stereo not given), CCCC(CCC)C(=O)Nc1cc(-c2cn3cccnc3n2)ccc1OC, COc1cc(C(c2c(C)[nH][nH]c2=O)c2c(C)[nH][nH]c2=O)ccc1OC(=O)c1cccc(C)c1, COc1ccc(C2=NC(c3ccncc3)=Nc3ccc(Br)cc3N2)cc1, CCn1cc(C(=O)N2CCN(c3ccc(F)cc3)CC2)c(=O)c2cc(S(=O)(=O)N(C)C3CCCCC3)ccc21, O=C(NCc1ccccc1Cl)C1CCCN(C(=O)c2cnn(-c3ccccc3)c2-n2cccc2)C1 (stereo not given), Cc1nc2c(C(=O)NCCc3ccc(Cl)cc3)c[nH]n2c(=O)c1Cc1ccc(Cl)cc1, COc1ccccc1C(=O)Nc1c(C(=O)N(C)Cc2ccccc2)sc2nc(C)c(Cl)c(C)c12, Cc1ccc2c(c1)-c1nc(-c3ccc4c(c3)NC(=O)CO4)cc(-c3ccc(F)cc3)c1CO2

Activity change, negative = inhibition, inactive:
COc1ccc(-c2nnc(SCC(=O)Nc3cccc(C(F)(F)F)c3)s2)cc1 -2.99%, Cc1ccc(CN2CCC(CNC(=O)c3cnn(-c4ccccc4Cl)c3C3CCN(C(=O)OC(C)(C)C)CC3)CC2)cc1 -21.5%, COc1ccc(Cl)c2sc(NC(=O)c3ccc(S(=O)(=O)N4CCOCC4)cc3)nc12 -3.7%, CCc1ccc(NC(=O)Cn2c(=O)n(-c3ccc(Cl)c(Cl)c3)c(=O)c3c(C)c(C)sc32)cc1 1.52%, Cc1c(-c2nc(-c3ccccc3)no2)nnn1-c1ccc(F)c(Cl)c1 4.28%, COCCNC(=O)c1cnc2sc(N3CCCCC3)nn2c1=O 10.8%, Cc1ccc(Cn2c(SCc3ccc(C(=O)NC4CCCCC4)cc3)nc3ccncc32)cc1 5.44%, CN(C(=O)c1ccc2c(c1)N(Cc1cccc(Cl)c1)C(=O)c1ccccc1S2(=O)=O)C1CCCCC1 -2.84%, COc1ccc(NC(=O)COCc2cc(-c3ccc4c(c3)OCO4)on2)cc1 2.75%, O=c1c(-c2ccc(Cl)cc2)c(C(F)(F)F)oc2c(CN3CCCCC3)c(O)ccc12 26.6%, CCOC(=O)C1CCCCN1S(=O)(=O)c1csc(C(N)=O)c1 (stereo not given) -1.51%, CCn1cc(C(=O)NCc2ccccc2)c(=O)c2cc(S(=O)(=O)N3CCc4ccccc4C3)ccc21 -9.35%, O=C(c1ccc2c(c1)CCCC2)N1CCN(c2nc3c(F)cccc3s2)CC1 17.1%, Cc1ccccc1Nc1c(-c2ccc(Cl)s2)nc2cccc(C)n12 -3.8%, O=C(CSc1nc2c(c(=O)[nH]1)CCC2)Nc1ccccc1C(F)(F)F -1.41%, COc1ccc(S(=O)(=O)c2c(C)c(NS(=O)(=O)c3ccccc3)cc(C)c2O)cc1 6.71%, COc1ccc(Cn2cc(C(=O)c3ccc(C)cc3)c(=O)c3cc(OC)c(OC)cc32)cc1 -5.32%, COc1ccc(CC(=O)NCc2ccc3c(c2)CCN3C(=O)c2ccccc2)cc1OC -2.64%, CN(C)c1ccc(-n2c(CCC(=O)O)ccc2-c2ccccc2)cc1 -9.49%, COc1ccccc1N1CCN(C(CNC(=O)C(=O)NCc2ccc(C)cc2)c2cccnc2)CC1 (stereo not given) 4.49%, CC(C)(C)c1ccc(OCCn2cc(C(=O)c3ccco3)c3ccccc32)cc1 1.38%, CCc1cccc(NC(=O)C2CCCN(S(=O)(=O)c3cccs3)C2)c1 (stereo not given) -1.54%, CCOC(=O)C1=C(CN2CCCCC2)NC(=O)NC1c1cc(C)ccc1C (stereo not given) -1.51%, COc1ccc(-c2nc3cc(C)ccn3c2NC(=O)c2ccc(C)c(C)c2)cc1 0.923%, CC(C)CCn1c(=O)c2sccc2n2c(CCCC(=O)NC(C)C)nnc12 -15.7%, CCNC(=O)c1cnc2c(-c3ccccc3)c(C)nn2c1C -0.725%, CC(C)CC1N=C2c3ccccc3N=C(SCC(=O)NCCc3ccc(Cl)cc3)N2C1=O (stereo not given) 5.76%, CNC(=O)CN1C(=O)c2cccnc2Sc2ccccc21 7.94%, Cc1ccc(NS(=O)(=O)c2ccc3c(c2)CC(C)N3C(=O)C2CCC2)cc1Cl (stereo not given) 3.29%, CCOc1ccccc1NC(=O)c1c(NC(=O)C(C)Oc2ccc(Cl)cc2)sc2c1CCCCC2 (stereo not given) 1.85%, Cc1cccc(-c2nc3c(c(SCc4ccccc4Cl)n2)Cc2c(CO)cnc(C)c2O3)c1 6.65%, COc1cc(Cl)c(C)cc1NC(=O)c1cc2c(Cl)nc3ccc(C)cc3c2s1 -17.5%, COc1cccc(CNC(=O)CN(C)S(=O)(=O)c2ccc3[nH]c4c(c3c2)CCCC4)c1 -8.55%, Cc1cccc(OCC(=O)Nc2ccccc2OCc2cc(=O)n3ccccc3n2)c1 -3.85%, COc1ccc(-n2c(=O)c3c4c(sc3n(Cc3ccccc3Cl)c2=O)CCC4)c(OC)c1 -4.95%, COc1ccc(-c2cc(=O)c3c(O)cc(O)cc3o2)cc1O 2.89%, Cc1ccc(CN2CCc3nc(N4CCN(c5ccccc5F)CC4)ncc3C2)cc1C 5.6%, COc1cccc(-c2cc(C(F)(F)F)nc(NCCc3ccccc3)n2)c1 -0.615%, Cc1cccc(C)c1-n1ncc(C(=O)Nc2ccc3c(c2)OCO3)c1C1CCN(C(=O)OC(C)(C)C)CC1 -2.9%, CCOc1ccccc1CNC(=O)C1CCCN(c2ncnc3onc(-c4ccc(F)cc4)c23)C1 (stereo not given) -0.845%, O=C(CSc1nnc(-c2ccc(O)cc2)o1)c1ccc(Br)cc1 1.03%, COCCCNC(=O)C(=O)Nc1c2c(nn1-c1cccc(Cl)c1)CSC2 2.69%, CCOC(=O)c1ccc(NC(=O)N2CCOc3ccccc32)cc1 5.34%, Cc1ccccc1-c1nnc(CN2CCN(c3ccccn3)CC2)o1 -0.722%, Cc1cc(Br)ccc1NC(=O)C1CCN(S(=O)(=O)c2cccc3nsnc23)CC1 27.8%
